From PubChem BioAssay AID504339 (National Center for Advancing Translational Sciences (NCATS), 2011)
The campaign covered roughly 390,000 compounds. About 17,000 (4.4%) were called active. The shares of active, inactive and inconclusive entries below differ from those in the screen. The call rests on the fitted dose curve; in most records, active means well fitted inhibition curve with a large enough effect; inconclusive means small, poorly fitted or top-dose-only effect; inactive means no such curve, though single readings can be large or run the other way. Where the call is inconclusive, the potency comes from a doubtful curve fit. Square brackets hold non-standard residues; d marks the D form. Peptide text beside a SMILES is read from it. * marks the point of attachment. ξ: configuration not given here. Piv = CC(C)(C)C(=O)*; ξNva = CCCC(N)C(=O)O

Each compound was assayed against Lysine-specific demethylase 4A (Homo sapiens) (UniProt O75164) (assay: qHTS Assay for Inhibitors of JMJD2A-Tudor Domain). Conditions: AlphaScreen JMJD2A-Tudor / H3K4me3 peptide binding; activity change, negative = inhibition: at 114 µM (top of the series).
Further: nearly all actives have a fitted effect of over 50% in size.
On the % scale 0 is the no-effect control and ±100 the full control effect; potency means the concentration at half of the fitted maximal effect; tags describe the fitted curve by direction and shape.

Chain of UniProt O75164 (O75164 whole entry, looked up, the tested form may be a part): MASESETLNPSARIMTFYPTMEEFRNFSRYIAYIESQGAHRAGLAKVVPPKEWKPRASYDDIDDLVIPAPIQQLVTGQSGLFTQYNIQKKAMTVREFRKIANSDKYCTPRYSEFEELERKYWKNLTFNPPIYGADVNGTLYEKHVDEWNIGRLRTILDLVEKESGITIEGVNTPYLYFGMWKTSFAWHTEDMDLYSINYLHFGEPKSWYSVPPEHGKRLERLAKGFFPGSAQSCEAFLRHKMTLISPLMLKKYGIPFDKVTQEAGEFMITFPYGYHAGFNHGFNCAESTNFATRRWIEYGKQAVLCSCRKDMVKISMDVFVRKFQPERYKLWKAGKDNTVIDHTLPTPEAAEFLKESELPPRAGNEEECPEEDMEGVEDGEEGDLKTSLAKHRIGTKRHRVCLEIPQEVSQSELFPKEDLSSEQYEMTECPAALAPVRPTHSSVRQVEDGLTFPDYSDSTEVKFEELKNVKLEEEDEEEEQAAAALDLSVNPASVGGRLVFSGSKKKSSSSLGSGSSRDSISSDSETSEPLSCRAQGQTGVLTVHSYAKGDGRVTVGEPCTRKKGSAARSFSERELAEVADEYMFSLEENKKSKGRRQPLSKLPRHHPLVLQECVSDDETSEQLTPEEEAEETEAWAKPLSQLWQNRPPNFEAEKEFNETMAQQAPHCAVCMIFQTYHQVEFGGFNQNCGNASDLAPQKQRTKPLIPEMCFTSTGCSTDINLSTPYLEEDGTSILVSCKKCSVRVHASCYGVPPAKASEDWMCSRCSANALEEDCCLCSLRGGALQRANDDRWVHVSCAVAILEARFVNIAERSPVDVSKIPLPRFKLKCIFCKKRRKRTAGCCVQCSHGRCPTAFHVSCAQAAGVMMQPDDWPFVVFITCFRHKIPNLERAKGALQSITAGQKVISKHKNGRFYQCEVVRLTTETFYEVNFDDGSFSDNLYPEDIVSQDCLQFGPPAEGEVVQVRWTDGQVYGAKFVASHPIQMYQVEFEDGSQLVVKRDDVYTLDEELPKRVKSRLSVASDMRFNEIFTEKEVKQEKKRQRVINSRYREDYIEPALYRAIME

| Structure (SMILES) | Potency | activity change, negative = inhibition |
| --- | --- | --- |
| O=C(CSc1ccccc1C(=O)O)c1ccc([N+](=O)[O-])cc1 | active: 20 µM |  |
| COc1ccc(NC2SC(=O)N(CC(=O)O)C2=O)cc1 (stereo not given) | active: 79.4 µM |  |
| Cc1ccc(C)c(Nc2nnc(-c3ccc(C)c(S(=O)(=O)N4CCN(C)CC4)c3)c3ccccc23)c1 | inconclusive: 50.1 µM [inhibitor, partial curve] |  |
| Cc1[nH][nH]c(=O)c1C(c1c(C)[nH][nH]c1=O)c1cn(Cc2ccc(Cl)c(Cl)c2)c2ccccc12 | active: 50.1 µM |  |
| Cc1cc(C)c(S(=O)(=O)NCCSCc2ccco2)c(C)c1 | inconclusive: 44.7 µM [inhibitor, partial curve] |  |
| CCOC(=O)CSc1nnc(COc2ccc3ccccc3c2)o1 | inconclusive: 35.5 µM [inhibitor, single point] |  |
| CN(C)CCCNC(=O)C[C@H]1C[C@H](C(=O)N2CCCCC2)[C@@]2(CCc3ccccc3)c3[nH]c4ccc(Cl)cc4c3CCN2C1=O | inconclusive: 56.2 µM [inhibitor, partial curve, poor fit] |  |
| C[C@H](CO)N1C[C@H](C)[C@H](CN(C)C(=O)Nc2ccc(F)cc2)Oc2c(NC(=O)c3ccc(-c4nccs4)cc3)cccc2C1=O | inconclusive: 50.1 µM [inhibitor, partial curve] |  |
| Cc1ccc(S(=O)(=O)C(CNC(=O)COc2ccccc2)c2cccs2)cc1 (stereo not given) | active: 25.1 µM |  |
| CCOC(=O)C1(Cc2ccccc2)CCCN(S(=O)(=O)N(C)C)C1 (stereo not given) | inactive |  |
| CCCC(NC(=O)CNC(=O)C(C)(C)C)C(=O)O (stereo not drawn) (Piv-Gly-[ξNva]-OH) | inconclusive: 25.1 µM [inhibitor, partial curve] |  |
| CC(=O)NS(=O)(=O)c1ccc(NC(=O)c2cc(-c3ccc(C)c(C)c3)nc3ccccc23)cc1 | inconclusive: 89.1 µM [inhibitor, single point] |  |
| O=c1oc2cc(O)ccc2cc1-c1nc(-c2ccc(Cl)c(Cl)c2)cs1 | inactive |  |
| CCCn1c(COc2cccc(C)c2)nc2ccccc21 | inactive |  |
| CCCc1cc(=O)[nH]c2nnc(SCC(=O)Nc3cc(C)on3)n12 | inconclusive: 39.8 µM [inhibitor, partial curve] |  |
| O=C(/C=C/c1cccs1)NC1CCS(=O)(=O)C1 (stereo not given) | inconclusive: 39.8 µM [inhibitor, single point] |  |
| Cc1ccc(S(=O)(=O)CCC(=O)Nc2ccc(Br)cc2)cc1 | inactive |  |
| Cc1[nH][nH]c(=O)c1C(c1ccc(-c2ccccc2C(=O)O)o1)c1c(C)[nH][nH]c1=O | active: 89.1 µM |  |
| C(=N\Nc1ccc2ccccc2n1)/c1ccc2c(c1)OCCO2 | inconclusive: 63.1 µM [inhibitor, partial curve, poor fit] |  |
| Cc1ccc(/C=C/c2onc(C)c2S(=O)(=O)N2CCC(C(=O)Nc3ccc(OC(F)(F)F)cc3)CC2)cc1 | inactive |  |
| CCc1ccc(NS(=O)(=O)c2ccc3[nH]cc(C(=O)N4CCc5ccccc54)c(=O)c3c2)cc1 | inconclusive: 44.7 µM [inhibitor, partial curve] |  |
| Cc1cccc(CN2CCN(c3nc4nonc4nc3NC3CC3)CC2=O)c1 | inactive |  |
| CC(C)CCNC(=O)COc1ccc2c(c1)C(=O)CC(C)(C)O2 | inactive |  |

| Structure (SMILES) | Potency | activity change, negative = inhibition |
| --- | --- | --- |
| O=C(CSc1nnc(-c2ccncc2)o1)Nc1cc(Cl)ccc1C(=O)O | inactive |  |
| COc1ccc(N2C(=O)c3ccccc3C2=O)cc1 | inactive |  |
| CCCCOc1ccc(C2CCC(C(C)=O)C(C)C2)cc1 (stereo not given) | inactive |  |
| CSc1c(-c2ccccn2)c(N)nn1C(=O)C1CC1 | inactive |  |
| CN(C)c1oc(-c2ccccc2Cl)nc1S(=O)(=O)c1ccccc1 | inconclusive: 79.4 µM [inhibitor, single point] |  |
| Cc1ccc(Cn2c(C3CCCN3c3nc(C)cs3)nc3cc(C(F)(F)F)ccc32)cc1 (stereo not given) | inconclusive: 56.2 µM [inhibitor, partial curve, poor fit] |  |
| COc1ccc(-c2csc(NC(=O)c3ccccc3F)n2)cc1 | inactive |  |
| O=C1N(Cc2cccc(Cl)c2)C[C@@H]2C[C@@H](c3ccc4nonc4c3)N3CCC[C@@]123 | inconclusive: 79.4 µM [inhibitor, partial curve] |  |
| COC(=O)c1cccc(NC(=O)c2ccc(S(=O)(=O)N3CCN(C)CC3)cc2)c1 | inconclusive: 100 µM [inhibitor, partial curve, poor fit] |  |
| Cc1cc(C)c(C)c(S(=O)(=O)N2CCC(C(=O)OCC(=O)N3c4ccccc4NC(=O)C3(C)C)CC2)c1C | inconclusive: 15.8 µM [inhibitor, full curve] |  |
| NC(=O)COC(=O)c1ccc(S(=O)(=O)NCc2ccco2)cc1 | inconclusive: 79.4 µM [inhibitor, partial curve] |  |
| CN1CCN(c2ccccc2NC(=O)c2ccc(-c3cccc([N+](=O)[O-])c3)o2)CC1 | inconclusive: 11.2 µM [inhibitor, full curve, poor fit] |  |
| Cc1ccccc1C(=O)NC[C@@H]1CCCN2CCCC[C@H]12 | inactive |  |
| COc1ccc(CC(=O)Nc2ncc([N+](=O)[O-])s2)cc1OC |  | inconclusive: -100% [inhibitor] |
| COc1cc(OC)cc(C(=O)Nc2ccc3nc4c(c(Nc5ccc(OC)c(OC)c5)c3c2)CCCC4)c1 | inconclusive: 20 µM [inhibitor, full curve] |  |
| CNC(=S)N/N=C/c1ccc(N2CCOCC2)s1 | inconclusive: 79.4 µM [inhibitor, partial curve] |  |
| CCCCc1ccc(Nc2cc(C)nc(-n3nc(C)cc3C)n2)cc1 | inconclusive: 5.62 µM [inhibitor, full curve, poor fit] |  |
| CN(C)c1cccc(S(=O)(=O)N2CCCN(S(=O)(=O)c3ccc4c(c3)OCCO4)CC2)c1 | inconclusive: 50.1 µM [inhibitor, partial curve] |  |
| COc1ccc(/C(O)=C2/C(=O)C(=O)N(CCN(C)C)C2c2ccc(C)cc2)cc1Cl (stereo not given) | inactive |  |
| Cc1ccc(C(=O)CSc2ncnc3sc4c(c23)CCCC4)cc1 | inactive |  |
| O=C1Nc2ccccc2C1Cc1ccccn1 (stereo not given) | active: 89.1 µM |  |
| CSc1nnc2c(n1)c(C)nn2-c1cccc(C)c1 | inconclusive: 15.8 µM [inhibitor, partial curve] |  |
